The experiment deals with T1, co-purified GST-eIF4G1/eIF4E complex (yeast, UniProt P39935 1-952; P07260 1-213).
T1 sequence (looked up) 1: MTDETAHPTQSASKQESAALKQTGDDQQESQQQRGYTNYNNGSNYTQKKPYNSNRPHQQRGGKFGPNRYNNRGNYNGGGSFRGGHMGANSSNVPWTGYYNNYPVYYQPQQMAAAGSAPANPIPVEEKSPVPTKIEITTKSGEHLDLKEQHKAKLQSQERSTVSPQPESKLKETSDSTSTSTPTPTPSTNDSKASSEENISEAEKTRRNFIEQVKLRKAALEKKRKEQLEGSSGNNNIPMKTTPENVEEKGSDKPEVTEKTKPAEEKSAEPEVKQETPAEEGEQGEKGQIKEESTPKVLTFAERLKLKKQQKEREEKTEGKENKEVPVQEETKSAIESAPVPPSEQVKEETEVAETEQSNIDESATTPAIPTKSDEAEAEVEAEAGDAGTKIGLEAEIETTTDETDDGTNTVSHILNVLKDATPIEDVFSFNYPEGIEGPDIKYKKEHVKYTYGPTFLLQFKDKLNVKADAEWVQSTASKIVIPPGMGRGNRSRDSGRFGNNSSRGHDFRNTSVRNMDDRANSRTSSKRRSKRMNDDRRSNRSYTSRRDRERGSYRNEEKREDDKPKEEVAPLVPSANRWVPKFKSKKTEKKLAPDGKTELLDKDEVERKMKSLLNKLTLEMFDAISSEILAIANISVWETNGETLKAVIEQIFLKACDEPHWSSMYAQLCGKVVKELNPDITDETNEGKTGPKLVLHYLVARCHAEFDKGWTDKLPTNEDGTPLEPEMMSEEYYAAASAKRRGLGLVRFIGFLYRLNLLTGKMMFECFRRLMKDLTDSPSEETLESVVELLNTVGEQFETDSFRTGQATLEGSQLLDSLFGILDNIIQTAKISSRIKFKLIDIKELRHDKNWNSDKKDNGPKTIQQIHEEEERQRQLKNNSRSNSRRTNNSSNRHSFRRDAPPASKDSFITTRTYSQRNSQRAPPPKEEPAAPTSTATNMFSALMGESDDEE
T1 sequence (looked up) 2: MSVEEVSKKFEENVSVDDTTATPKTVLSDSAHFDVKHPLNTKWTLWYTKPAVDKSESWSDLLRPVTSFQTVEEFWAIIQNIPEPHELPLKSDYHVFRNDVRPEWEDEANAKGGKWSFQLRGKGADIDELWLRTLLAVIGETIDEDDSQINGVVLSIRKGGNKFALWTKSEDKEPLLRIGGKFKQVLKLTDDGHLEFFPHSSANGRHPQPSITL
Kind of experiment: pull-down.

The text below walks through data of publication PMC3268518 (Molecular Cell, 2011).

B1: rded[…]A (enzyme)
chain: not shown
Turning to B1, the binding result was “binds”.
